Reference: patent publication US20240239885A1, “ANTIBODY CONJUGATE COMPRISING ANTI-P-CADHERIN ANTIBODY AND USES THEREOF” (WUXI BIOLOGICS IRELAND LIMITED, priority 2021, published 2024)

Assays:
MDA-MB-453 cells = test: Cytotoxicity assay of ADC (Cell Titer Glo) on MDA-MB-453; format: cell-based, human
HCC-1954 cells = test: Antibody mediated internalization assay (HCS) on HCC-1954; format: cell-based, human
Experimental: (§1) Operetta CLS (PerkinElmer) is a high content imaging and analysis system that can collect and analyze images of samples with high speed and sensitivity. One day before the assay day, Poly-D-Lysine (PDL) was diluted to 8 μg/mL in DPBS (Hyclone, #SH30028.03) and added 100 μL/well into 96-well clear bottom black plates (Greinier, #655090). The PDL-coated plates were then incubated at 37° C. for 1 hour before discarding the supernatant. HCC-1954 (ATCC, CRL-2338) cells or NCI-H1650 (ATCC, CRL-5883) cells were plated at 18000 cells per well into the PDL-coated plates in 100 μL RPMI1640 complete medium (Gibco, #22400-089) containing 10% FBS (Hyclone, #SH30084.03). On Day 1, supernatants in the plates were discarded and antibodies serially diluted in 1% BSA/1×PBS (Ca+/Mg+) were added at 100 µL/well and incubated at 4° C. for 2 hours. A non-related hlgG1 antibody was used as an isotype control. […]
(§2) Images were collected and analyzed by operetta CLS (PerkinElmer). The amount of internalized anti-P-cadherin antibody was assessed by measuring the mean fluorescence (MFI) per cell, wells containing no antibody or secondary antibody only were used to establish background fluorescence. […]

NCI-H1650 cells = test: Antibody mediated internalization assay (HCS) on NCI-H1650; format: cell-based, human
Experimental: as §1, §2

[1] = target: T1, human P-cadherin expressing NCI-H1650 cells (Homo sapiens, UniProt P22223); test: Affinity to P-cadherin (FACS) on NCI-H1650 cells; format: binding
T1 construct: endogenous in cells; host or cells: NCI-H1650

huCDH3 ECD = target: T2, huCDH3 ECD (Homo sapiens, UniProt P22223); test: Domain determination binding (ELISA), full ECD; conditions: concluded from ELISA on ECD truncations
T2 construct: huCDH3 ECD, Uniprot ID: P22223 partial chain; 6xHis (C); made in house
Experimental: The binding domains of the antibody drug conjugates to human P-Cadherin extra cellular domain (ECD) were determined by a direct protein binding ELISA. 96-well high protein binding ELISA plates (Nunc) were coated overnight at 4° ° C. with antigens in coating buffer. All wells were washed three time with PBS/0.5%. Tween-20 (v/v) and all the following wash steps in the assay were performed the same. The wells were then blocked for one hour with 2% BSA (Bovogen)/1×PBS (Ca+/Mg+) (Gibco) and washed three times. For the primary antibody binding, the testing antibodies including the BMKs and our antibodies serially diluted in 2% BSA/1×PBS (Ca+/Mg+) were added to the relevant wells and incubated at ambient temperature for two hours. […]
For the binding detection, 100 μL Tetramethylbenzidine (TMB) Substrate solution (Invitrogen) was added to all wells before stopping the reaction with 100 μL 2M HCl. The extent of the testing Abs binding to P-Cadherin ECD (i.e. huCDH3 ECD, Uniprot ID: P22223 partial chain), P-Cadherin ECD domain 1 (aa 108-236), P-Cadherin ECD domain 1+2 (aa 108-348), P-Cadherin ECD domain 1+2+3 (aa 108-461), P-Cadherin ECD domain 1+2+3+4 (aa 108-550) proteins were determined by measuring the OD450-OD540 absorbance using the SpectraMax® M5e microplate reader. […]

MDA-MB-453 = test: Non-specific binding (FACS) on MDA-MB-453; design: species or system human; conditions: MDA-MB-453, 10 μg/mL
Experimental: (§3) Human cell lines were seeded in 96-well plates (BD) at a density of 1×10^5 cells/well. 10 μg/mL antibody samples were added to cells and incubated for 1 h at 4° C. After washing, the cells were resuspended and incubated with PE-conjugated goat anti-human IgG Fc antibody (Jackson) for 30 min. After washing and resuspending, mean fluorescence intensity (MFI) was measured by flow cytometry (BD Canto II) and analyzed by FlowJo.

Calu-6 = test: Non-specific binding (FACS) on Calu-6; design: species or system human; conditions: Calu-6, 10 μg/mL
Experimental: as §3

8505C = test: Non-specific binding (FACS) on 8505C; design: species or system human; conditions: 10 μg/mL
Experimental: as §3

T2 sequence (P22223 108-654): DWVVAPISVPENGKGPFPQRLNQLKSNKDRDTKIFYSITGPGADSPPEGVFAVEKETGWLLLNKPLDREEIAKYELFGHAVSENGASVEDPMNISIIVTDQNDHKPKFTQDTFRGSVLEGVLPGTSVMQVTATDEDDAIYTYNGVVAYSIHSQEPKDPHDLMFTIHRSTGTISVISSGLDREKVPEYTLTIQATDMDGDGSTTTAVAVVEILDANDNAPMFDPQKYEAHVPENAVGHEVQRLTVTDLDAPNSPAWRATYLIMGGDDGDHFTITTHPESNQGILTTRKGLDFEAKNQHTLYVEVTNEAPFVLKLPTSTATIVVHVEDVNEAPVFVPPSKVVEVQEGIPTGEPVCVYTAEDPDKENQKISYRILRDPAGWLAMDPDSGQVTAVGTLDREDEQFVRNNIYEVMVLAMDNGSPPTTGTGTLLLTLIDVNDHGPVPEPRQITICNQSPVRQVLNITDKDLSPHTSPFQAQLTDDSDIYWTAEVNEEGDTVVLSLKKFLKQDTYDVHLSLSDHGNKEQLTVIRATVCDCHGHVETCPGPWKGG
T1 sequence (P22223 108-829): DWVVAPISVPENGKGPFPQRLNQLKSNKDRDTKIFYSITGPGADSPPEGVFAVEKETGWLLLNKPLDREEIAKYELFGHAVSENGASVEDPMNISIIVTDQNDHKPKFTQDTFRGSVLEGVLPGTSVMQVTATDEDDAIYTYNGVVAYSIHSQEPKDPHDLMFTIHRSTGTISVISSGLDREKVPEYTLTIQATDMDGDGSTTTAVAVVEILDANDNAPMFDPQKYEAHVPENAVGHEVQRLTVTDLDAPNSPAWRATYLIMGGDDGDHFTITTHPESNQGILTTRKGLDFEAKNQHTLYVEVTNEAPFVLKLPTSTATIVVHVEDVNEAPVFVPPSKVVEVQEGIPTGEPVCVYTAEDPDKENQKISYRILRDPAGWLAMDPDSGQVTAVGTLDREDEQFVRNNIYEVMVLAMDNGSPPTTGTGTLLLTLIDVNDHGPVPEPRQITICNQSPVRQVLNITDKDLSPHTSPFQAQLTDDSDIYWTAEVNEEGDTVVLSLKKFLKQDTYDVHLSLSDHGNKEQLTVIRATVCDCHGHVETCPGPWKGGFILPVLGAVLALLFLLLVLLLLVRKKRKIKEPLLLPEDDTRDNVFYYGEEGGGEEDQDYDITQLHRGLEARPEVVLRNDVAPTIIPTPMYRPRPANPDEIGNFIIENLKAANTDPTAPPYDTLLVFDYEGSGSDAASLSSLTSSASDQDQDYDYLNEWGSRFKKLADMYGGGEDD

B1: W3195-1.53.1-p1-uIgG1L-MMAE (conjugate)
heavy: QVQLQESGPGLVKPSETLSLTCTVSGGSVISDNYYWTWVRQPPGKGLEFIGYIYYRGSTNYNPSLKNRVIISIDTSRNQFSLDLNSVTAADTAVYYCARDRRTGNSLPFDNWGQGTLVTVSSASTKGPSVFPLAPSSKSTSGGTAALGCLVKDYFPEPVTVSWNSGALTSGVHTFPAVLQSSGLYSLSSVVTVPSSSLGTQTYICNVNHKPSNTKVDKRV[human IgG1 Fc not written out]
light: SYELTQPPSVSVSPGQTAQITCSGDKLGDKFASWYQQKSGQSPVVVIYQDNKRPSGFPERFSGSNSGNTATLTISGTQAMDEADYYCQAWDSSIVVFGGGTKLTVLGQPKAAPSVTLFPPSSEELQANKATLVCLISDFYPGAVTVAWKADSSPVKAGVETTTPSKQSNNKYAASSYLSLTPEQWKSHRSYSCQVTHEGSTVEKTVAPTECS
- IC50 (MDA-MB-453 cells; MDA-MB-453 (P-cadherin low expressing), 5 days, read-out: IC50 (nM), ADC toxicity): > 10 nM
- Max Inh % (MDA-MB-453 cells; MDA-MB-453, 5 days): 4.0%
- Top MFI, internalization in HCS assay (HCC-1954 cells): 1280
- Top MFI, internalization in HCS assay (NCI-H1650 cells): 94928
- Bmax (M), FACS affinity [1]: 1.88e-10 M
- binding domain on human P-Cadherin ECD (huCDH3 ECD): Domain 3
- MFI, non-specific binding (MDA-MB-453): 47.4
- MFI, non-specific binding (Calu-6): 38.5
- MFI, non-specific binding (8505C): 26.5
